Laboratory results published in paper PMC7185459 (Antiviral Research, 2015).

System: SRI 29365-resistant mutant hRSV
Assay type: cell-based, Human respiratory syncytial virus

c1coc(-c2nn3c(Cn4cnc5ccccc54)nnc3s2)c1 [SRI 29365, 1-[6-(2-furyl)[1,2,4]triazolo[3,4-b][1,3,4]thiadiazol-3-yl]methyl-1H-benzimidazole]
reduction of virus TCID50: less than 10 fold
